Hit rate of the full screen: of about 16,000 compounds, about 120 (0.75%) were called active. Roughly 4% stayed inconclusive and do not appear here. Calls come from the whole dose curve; as a rule, active = well fitted inhibition curve with a large enough effect; inconclusive = small, poorly fitted or top-dose-only effect; inactive = no such curve, though single readings can be large or run the other way. The list shows a part of the results. Where a SMILES comes first, the peptide text is derived from it. The star is where a group is joined. Cbz = O=C(OCc1ccccc1)*
Target: Rap guanine nucleotide exchange factor 3 (Homo sapiens) (UniProt O95398)
UniProt O95398, sequence (O95398 whole entry, looked up): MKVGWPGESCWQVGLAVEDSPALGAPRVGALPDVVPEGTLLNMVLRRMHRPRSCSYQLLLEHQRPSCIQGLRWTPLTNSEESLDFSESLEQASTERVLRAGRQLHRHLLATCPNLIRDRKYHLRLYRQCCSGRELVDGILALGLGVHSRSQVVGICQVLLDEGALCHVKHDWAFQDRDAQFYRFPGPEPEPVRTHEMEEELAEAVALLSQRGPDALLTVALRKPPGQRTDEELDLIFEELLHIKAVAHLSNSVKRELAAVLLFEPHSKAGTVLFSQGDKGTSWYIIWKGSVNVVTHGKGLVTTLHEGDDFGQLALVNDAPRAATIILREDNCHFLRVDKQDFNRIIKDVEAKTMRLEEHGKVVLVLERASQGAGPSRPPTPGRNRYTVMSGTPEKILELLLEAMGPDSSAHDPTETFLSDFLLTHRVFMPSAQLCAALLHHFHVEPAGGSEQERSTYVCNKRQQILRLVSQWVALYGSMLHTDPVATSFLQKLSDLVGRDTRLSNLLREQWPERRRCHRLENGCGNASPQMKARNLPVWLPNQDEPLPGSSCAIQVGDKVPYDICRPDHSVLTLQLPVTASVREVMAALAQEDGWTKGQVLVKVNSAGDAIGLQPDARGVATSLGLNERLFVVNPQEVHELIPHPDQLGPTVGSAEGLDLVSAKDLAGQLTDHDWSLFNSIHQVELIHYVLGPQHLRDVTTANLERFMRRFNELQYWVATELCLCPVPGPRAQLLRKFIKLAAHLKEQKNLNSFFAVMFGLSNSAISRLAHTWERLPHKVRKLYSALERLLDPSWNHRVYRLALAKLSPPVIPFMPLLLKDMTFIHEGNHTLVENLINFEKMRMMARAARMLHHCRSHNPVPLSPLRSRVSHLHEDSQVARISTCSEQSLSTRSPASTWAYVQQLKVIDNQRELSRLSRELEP
Experiment: Validation qHTS for antagonist of cAMP-regulated guanine nucleotide exchange factor 3 (EPAC1); note: nearly all actives have a fitted effect of over 75% in size
Conditions: EPAC1 Rap1B-BODIPY-GDP exchange, fluorescence; series mostly up to 150 µM; activity change, negative = inhibition: at the top concentration
Outline: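 EPAC1 (100 nM) mixed with 250 nM RAP1B-BODIPY-GDP and 50 uM GDP; compounds in concentration series, 5 min at room temperature. Fluorescence (ex 480/em 540 nm) read every 5 min for 30 min; normalized to ATA control and DMSO.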
Potency is the fitted concentration of half-maximal effect.

Row | Compound | activity change, negative = inhibition | Potency
1 | CN1CCN(c2ncc3ncc(=O)n(C4CC4)c3n2)CC1 | inactive: -9.67% | –
2 | COc1cc(O)c(C(=O)/C=C/c2ccccc2)c(OC)c1 | inactive: 11.3% | –
3 | COc1cc(-c2noc(C)c2C#CC2(N)CCCCC2)cc(OC)c1OC | inactive: 1.83% | –
4 | CN(C)C(=O)c1ccc(-c2nc(NC3CCNCC3)c3ccccc3n2)cc1 | inactive: 5.81% | –
5 | CCCCOC(=O)c1cc2c(cn1)[nH]c1ccccc12 | inactive | –
6 | O=C(O)COc1ccccc1/C=N/NC(=O)c1ccncc1 | inactive: 10.1% | –
7 | NC(=O)c1ncn(C2OC(CO)C(O)C2O)c1N (stereo not drawn) | inactive: 9.96% | –
8 | Cc1oc(-c2ccccc2NC(=O)C2CCCO2)nc1CNC(=O)c1[nH]c2c(C)ccc(C)c2c1C (stereo not drawn) | inactive: 7.17% | –
9 | CC(/C=C/C=C(\C)C(=O)O[C@@H]1O[C@H](CO[C@@H]2O[C@H](CO)[C@@H](O)[C@H](O)[C@H]2O)[C@@H](O)[C@H](O)[C@H]1O)=C\C=C\C=C(C)\C=C\C=C(/C)C(=O)O[C@@H]1O[C@H](CO[C@@H]2O[C@H](CO)[C@@H](O)[C@H](O)[C@H]2O)[C@@H](O)[C@H](O)[C@H]1O | inactive: 25% | –
10 | c1ccc(CN2CCN(Cc3ccc4c(c3)CN(Cc3c[nH]c5ccccc35)CCO4)CC2)nc1 | inactive: 10.2% | –
11 | Cc1ccc(CC(Cc2nc3ccccc3[nH]2)c2nc3ccccc3[nH]2)cc1 (stereo not drawn) | inactive: 1.41% | –
12 | O=C(NCCc1ccccc1)[C@@H]1CC=C[C@@H]2CCN(Cc3ccc(Cl)c(Cl)c3)C(=O)[C@@H]21 | inactive: -5.04% | –
13 | Cc1ncc2c(c1CNC(=O)/C=C/c1cccs1)CCN(C(=O)C1CCCO1)C2 (stereo not drawn) | inactive: 5.33% | –
14 | C1CCC(NC(=NC2C3CC4CC(C3)CC2C4)N2CCOCC2)CC1 (stereo not drawn) | inactive | –
15 | O=[N+]([O-])c1ccc(O)c2ncccc12 | inactive: 1.88% | –
16 | COc1cccc(CNC(=O)c2c(OC)cc(=O)n3c2CCN(C(=O)C2CC24CCCCC4)CC3)c1 (stereo not drawn) | inactive: 11.3% | –
17 | O=C(O)/C=C/c1ccc2c(c1)S(=O)(=O)N(C1CCCC1)[C@H]2CC(=O)O | inactive: -10.5% | –
18 | COc1cc(CNC(=O)CCCCCCC(C)C)ccc1O | inactive | –
19 | CCOC(=O)/C=C1\CN(Cc2cc(OC)c(OC)c(OC)c2)S(=O)(=O)c2ccccc21 | inactive: 8.9% | –
20 | Cc1nc2c([nH]1)c(=O)n(C)c(=O)n2Cc1ccco1 | inactive | –
21 | CC(NCCc1ccc(O)cc1)C(O)c1ccc(O)cc1 (stereo not drawn) | inactive: 7.58% | –
22 | COc1ccc(NC(=O)N2CC[C@@]3(CCCN(C(=O)c4cnccn4)C3)C2)cc1 | inactive: 18.1% | –
23 | FC(F)(F)c1ccccc1-c1cncnc1NCc1cccnc1 | inactive: 3.43% | –
24 | CC(C)C(=O)NC(C)c1nnc2n1CCN(Cc1cccc3ncccc13)CC2 (stereo not drawn) | inactive: -5.13% | –
25 | Cc1cnc(CNc2ncncc2-c2cccnc2)cn1 | inactive: 11.5% | –

Row | Compound | activity change, negative = inhibition | Potency
26 | Cc1c(C(=O)NCCN2CCC(c3ccccc3)CC2)cnn1-c1nccc(-c2cccs2)n1 | inactive: -18.4% | –
27 | Cc1cccc(/C=C\c2ccccc2)n1 | inactive: -4.13% | –
28 | COCCn1c(=O)c(-c2ccc(F)cc2)nc2cnc(Oc3ccc(OC)cc3)nc21 | inactive: -13.8% | –
29 | CCC1(C)CC(=O)NC1=O (stereo not drawn) | inactive | –
30 | CC(=O)Nc1ccc(OC(C)=O)cc1 | inactive: 11.8% | –
31 | CCCNC(C)(C)COC(=O)c1ccccc1 | inactive: 0.817% | –
32 | O=C(O)C[C@H]1c2ccccc2S(=O)(=O)N1c1ccccc1 | inactive: 22% | –
33 | O=c1c(-c2ccc(F)cc2)nc2cnc(N3CCOCC3)nc2n1C1CC1 | inactive: 10.8% | –
34 | CCc1nc2cc(C(=O)N(C)CC3CCCN(C)C3)cc(NC(=O)c3ccccc3OC)c2n1C (stereo not drawn) | inactive: 22.1% | –
35 | FC(F)(F)c1cc(CN2CC[C@@]3(CCCNC3)C2)cc(C(F)(F)F)c1 | inactive: 4.23% | –
36 | O=C(O)Cc1cccc2ccccc12 | inactive | –
37 | COCC(=O)N1CCC2(CCCN(Cc3cc(C(F)(F)F)cc(C(F)(F)F)c3)C2)CC1 | inactive: 2.56% | –
38 | CC(C)[C@H](NC(=O)OCc1ccccc1)C(=O)N[C@H](C=O)Cc1ccccc1 (Cbz-Val-Phe-aldehyde) | inactive | –
39 | O=C(c1cnccn1)N1CCC2(CCN(Cc3nccs3)CC2)CC1 | inactive: 10.5% | –
40 | OC[C@H]1NC[C@@H](O)[C@@H]1O | inactive: 4.26% [at 75.8 µM] | –
41 | NC(=S)c1ccc[n+]([C@@H]2O[C@@H](COP(=O)([O-])OP(=O)(O)OC[C@H]3O[C@@H](n4cnc5c(N)ncnc54)[C@H](OP(=O)(O)O)[C@@H]3O)C(O)C2O)c1 (stereo partly drawn) | inactive: 4.05% [at 75.8 µM] | –
42 | Cc1c(C(=O)N(C)C2CCOC2)sc2ncnc(NCc3ccc4c(c3)OCO4)c12 (stereo not drawn) | inactive: 17.6% | –
43 | O=S(=O)(c1cccc2cnccc12)N1CCCNCC1 | inactive | –
44 | COc1cc2nc(N3CCCN(C)CC3)nc(NC3CCN(Cc4ccccc4)CC3)c2cc1OC | inactive: 3.7% [at 75.8 µM] | –
45 | O=c1[nH]/c(=C/c2ccc3c(c2)OCO3)c(=O)[nH]/c1=C/c1ccc2c(c1)OCO2 | inactive: 10.6% | –
46 | COc1ccc(CN2CCCC(c3nc(-c4ccncc4)ncc3-c3ccccc3)C2)cc1OC (stereo not drawn) | inactive: 17.4% | –
47 | Nc1nc2c(nc(Br)n2[C@@H]2O[C@H]3COP(=O)(O)O[C@H]3[C@@H]2O)c(=O)[nH]1 | inactive: -21.7% | –
48 | O=C(c1cccc(Cn2cccn2)c1)N1CCOc2c(cc(-c3csc4ccccc34)cc2OC2CCOC2)C1 (stereo not drawn) | inactive: -10.8% | –
49 | O=C(c1ccco1)N1CCC2(CCCN(c3ccccc3)C2)CC1 | inactive: 20.5% | –
50 | CCC[C@H]1COCCS(=O)(=O)N1Cc1ccc(F)cc1 | inactive: -18.8% | –

Row | Compound | activity change, negative = inhibition | Potency
51 | Cc1ccccc1-c1cncnc1Nc1ccccc1 | inactive: -3.15% | –
52 | CN(C)CCCc1cc(C(=O)Nc2ccc(-c3ccncc3)cc2)ccc1O | inactive | –
53 | CCNc1ncc2nc(-c3ccccc3)c(=O)n(Cc3ccc(F)cc3)c2n1 | inactive: -6.84% | –
54 | NC1[C@H]2CN(c3nc4c(cc3F)c(=O)c(C(=O)O)cn4-c3ccc(F)cc3F)C[C@@H]12 (stereo partly drawn) | inactive: 9.1% | –
55 | CC(=O)OCC(=O)Nc1cc(C#N)cc(NC(=O)COC(C)=O)c1Cl | inactive: 22.2% | –
56 | Cc1noc(C)c1C(=O)N1CCC2(CCCN(c3ncccn3)C2)CC1 | inactive: 4.31% | –
57 | Cn1c(=O)c2c(nc(/C=C/c3cccc(Cl)c3)n2C)n(C)c1=O | inactive | –
58 | CCNc1ncc2nc(-c3ccc(OC)cc3)c(=O)n(CCC#N)c2n1 | inactive: 23.4% | –
59 | O=C(c1ccncc1)N1CCC2(CC1)CCN(c1cccc(-c3ccccc3)c1)CC2 | inactive: 1.52% | –
60 | Cn1cc(-c2nc3cnc(Oc4ccccc4)nc3n(CCC#N)c2=O)c2ccccc21 | inactive: 27.2% | –
61 | CCc1nn(CCCN2CCN(c3cccc(Cl)c3)CC2)c(=O)n1CCOc1ccccc1 | inactive | –
62 | O=c1c(O)cc(C2Oc3cc(O)cc(O)c3CC2O)cc2c(C3Oc4cc(O)cc(O)c4CC3O)cc(O)c(O)c12 (stereo not drawn) | – | active: 39.8 µM
63 | CO[C@H]1[C@H](NC(=O)c2cccc(F)c2)c2ccccc2C12CCN(Cc1ccco1)CC2 | inactive: 7.18% | –
64 | CCCCCC(O)CCCC(=O)O (stereo not drawn) | inactive | –
65 | C[C@@H]1CCN=C(N)S1 | inactive: -9.46% | –
66 | COc1cccc(-c2cncnc2NCc2ccccc2OC)c1 | inactive: 8.57% | –
67 | COCCn1c(=O)c(-c2ccccc2)nc2cnc(Nc3cccc(OC)c3)nc21 | inactive: 24.5% | –
68 | O=C(C[n+]1cccc(Br)c1)c1ccc(Br)cc1 | inactive: 10.8% | –
69 | CCCCC(=O)O[C@]1(C(=O)CO)[C@H](C)C[C@H]2[C@@H]3CCC4=CC(=O)C=C[C@]4(C)[C@@]3(F)[C@@H](O)C[C@@]21C | inactive: 0.544% | –
70 | COc1cc(N)c(Cl)cc1C(=O)OCCN1CCCCC1 | inactive: 2.29% [at 75.8 µM] | –
71 | COc1cccc(Cn2c(=O)c(-c3cccc(C#N)c3)nc3cnc(N4CCN(C)CC4)nc32)c1 | inactive: 4.61% | –
72 | CCCCC(=O)OCC(=O)[C@H]1[C@H](C)C[C@H]2[C@@H]3C[C@H](F)C4=CC(=O)C=C[C@]4(C)[C@@]3(F)[C@@H](O)C[C@@]21C | inactive: -10.3% | –
73 | Cc1cc(C)nc(-c2cccc3c2OC(CNC(=O)C2CCOC2)C3)n1 (stereo not drawn) | inactive: 13.4% | –
74 | CC1c2cccc(O)c2C(O)=C2C(=O)[C@]3(O)C(O)=C(C(N)=O)C(=O)C(N(C)C)C3C(O)C21 (stereo partly drawn) | inactive: 10.5% | –
75 | O=c1c(-c2ccccc2)nc2cnc(N3CCOCC3)nc2n1Cc1cccs1 | inactive: 6.19% | –

Row | Compound | activity change, negative = inhibition | Potency
76 | Cc1c(Nc2ncccc2C(=O)O)cccc1C(F)(F)F | inactive | –
77 | CC[C@H](c1ccc(O)cc1)[C@@H](CC)c1ccc(O)cc1 | inactive: -11.3% [at 75.8 µM] | –
78 | O=C(Cc1ccccc1)NO | inactive: 6.94% | –
79 | CN(Cc1ccon1)C(=O)c1cnn(-c2nccc(-c3ccc4c(c3)OCO4)n2)c1C1CC1 | inactive: 6.11% | –
80 | CCN(Cc1ccncc1)Cc1ccc2c(c1)CN(C(=O)c1ccc(OC)cc1)CCO2 | inactive: 17.1% | –
81 | O=C(Nc1cccc(C2=NCCN2)c1)Nc1cccc(C2=NCCN2)c1 | inactive: -6.27% | –
82 | Nc1ncnc2c1ncn2C1CCCC1 | inactive: 7.44% [at 75.8 µM] | –
83 | CCCOC(=O)c1ccc(N)cc1 | inactive: -4.04% | –
84 | Cc1cc(N(C)C)cc(C)c1/C=C/c1ccnc2ccccc12 | inactive: -6.74% | –
85 | Cc1ccc(C(=O)N(Cc2cc3cccc(C)c3nc2N(C)C)CC2CCCO2)cc1 (stereo not drawn) | inactive: 0.406% | –
86 | COc1cc(C)c(CN2CCc3nnc(C(C)NC(=O)c4cc(F)ccc4F)n3CC2)cc1C (stereo not drawn) | inactive: 10.9% | –
87 | COCc1c(C(=O)NC2CCCC2)cnn1-c1nccc(-c2ccco2)n1 | inactive: 5.94% | –
88 | C[C@]12CCC(=O)C=C1CC[C@@H]1[C@@H]2[C@@H](O)C[C@@]2(C)[C@H]1CC[C@]2(O)C(=O)COP(=O)(O)O | inactive: 27% | –
89 | Cc1c([N+](=O)[O-])cnc2ccccc12 | inactive: -15.3% | –
90 | COC(=O)c1cccc(C(=O)N2CCc3c(cnc(C)c3CNC(=O)c3ccsc3)C2)c1 | inactive: 8.68% | –
91 | O=C1NC(c2cccc([N+](=O)[O-])c2)=CCN1c1ccccc1O | inactive | –
92 | CC(=O)OCC(=O)[C@@]1(O)CC[C@H]2[C@@H]3CCC4=CC(=O)C=C[C@]4(C)[C@H]3[C@@H](O)C[C@@]21C | inactive: 26.8% | –
93 | CN(C)c1ncnc2ccc(-c3cccnc3)cc12 | inactive: 1.85% | –
94 | CC(=O)Nc1cc(C(=O)N2CCN(C(=O)c3ccco3)CC2)cc2ncn(CCc3ccccn3)c12 | inactive: 9.96% | –
95 | Cc1nc2ccccc2nc1CN1CCOc2ccc(C(C)(O)COc3ccccc3)cc2C1 (stereo not drawn) | inactive: -13.5% | –
96 | O=c1c(CCc2ccccc2)nc2cnc(N3CCNCC3)nc2n1CCc1ccccc1 | inactive: 7.55% | –
97 | COc1ccccc1-c1nccc(NCc2cccs2)n1 | inactive: 12.2% | –
98 | O=c1c(-c2ccccc2)nc2cncnc2n1-c1ccccc1 | inactive: 16.2% | –

From PubChem BioAssay AID1645882 (National Center for Advancing Translational Sciences (NCATS), 2021)
